# Results: patent US20200138970A1 (Bayer, published 2020)
# T1: human B7H3 on cancer cell lines (human, UniProt Q5ZPR3 29-534)
# T1 sequence (looked up): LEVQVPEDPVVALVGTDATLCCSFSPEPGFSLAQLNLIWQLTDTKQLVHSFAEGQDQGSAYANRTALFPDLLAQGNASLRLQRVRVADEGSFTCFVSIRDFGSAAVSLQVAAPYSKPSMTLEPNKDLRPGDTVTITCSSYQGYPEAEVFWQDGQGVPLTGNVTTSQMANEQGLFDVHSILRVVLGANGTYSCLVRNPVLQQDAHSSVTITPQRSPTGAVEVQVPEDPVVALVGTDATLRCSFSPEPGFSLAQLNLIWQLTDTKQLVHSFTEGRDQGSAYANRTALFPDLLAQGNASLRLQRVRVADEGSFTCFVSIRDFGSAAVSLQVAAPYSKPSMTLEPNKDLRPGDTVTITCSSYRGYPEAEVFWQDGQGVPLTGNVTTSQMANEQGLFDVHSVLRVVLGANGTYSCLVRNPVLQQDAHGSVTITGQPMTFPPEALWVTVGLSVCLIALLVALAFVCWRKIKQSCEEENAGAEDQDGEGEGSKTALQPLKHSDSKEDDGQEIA
# B1: ADC Example 208-6497 (antibody, human IgG1, lambda)
# heavy: EVQLLESGGGLVQPGGSLRLSCAASGFTFRSYAMSWVRQAPGKGLEWVSSVSGSGGSALYADSVKGRFTISRDNSKNTLYLQMNSLRAEDTAVYYCTRLTGTSFDYWGQGTLVTVSS[left out - human IgG1 constant region]
# light: QSVLTQPPSASGTPGQRVTISCSGSSSNIGSNPVNWYQQLPGTAPKLLIYGNSNRPSGVPDRFSGSKSGTSASLAISGLRSEDEADYYCQSFDSSLKKVFGGGTKLTVLGQPKAAPSVTLFPPSSEELQANKATLVCLISDFYPGAVTVAWKADSSPVKAGVETTTPSKQSNNKYAASSYLSLTPEQWKSHRSYSCQVTHEGSTVEKTVAPTECS
# modifications: drug-linker from Intermediate F104 on Cys, sites not stated
# B2: ADC Example 317-8382 (antibody, human IgG1, lambda)
# heavy: B1 heavy with R30S, V51I, A58T, T97A, R98K
# light: B1 light with G51S, S53N, N54Q, S77T, R80Q
# modifications: drug-linker from Intermediate F317 on Cys, sites not stated
# B3: ADC Example 320-8382 (antibody, human IgG1, lambda)
# heavy: B1 heavy with R30S, V51I, A58T, T97A, R98K
# light: B1 light with G51S, S53N, N54Q, S77T, R80Q
# modifications: drug-linker from Intermediate F320 on Cys, sites not stated
# B4: ADC Example 308-6497 (antibody, human IgG1, lambda)
# heavy: B1 heavy
# light: B1 light
# modifications: drug-linker from Intermediate F308 on Cys, sites not stated
# B5: ADC Example 309-6497 (antibody, human IgG1, lambda)
# heavy: B1 heavy
# light: B1 light
# modifications: drug-linker from Intermediate F309 on Cys, sites not stated
# B6: ADC Example 326-8382 (antibody, human IgG1, lambda)
# heavy: B1 heavy with R30S, V51I, A58T, T97A, R98K
# light: B1 light with G51S, S53N, N54Q, S77T, R80Q
# modifications: drug-linker from Intermediate F326 on Cys, sites not stated
# B7: ADC Example 318-6497 (antibody, human IgG1, lambda)
# heavy: B1 heavy
# light: B1 light
# modifications: drug-linker from Intermediate F318 on Cys, sites not stated
# B8: ADC Example 307-6497 (antibody, human IgG1, lambda)
# heavy: B1 heavy
# light: B1 light
# modifications: drug-linker from Intermediate F307 on Cys, sites not stated
# B9: ADC Example 311-8382 (antibody, human IgG1, lambda)
# heavy: B1 heavy with R30S, V51I, A58T, T97A, R98K
# light: B1 light with G51S, S53N, N54Q, S77T, R80Q
# modifications: drug-linker from Intermediate F311 on Cys, sites not stated
# B10: ADC Example 319-8382 (antibody, human IgG1, lambda)
# heavy: B1 heavy with R30S, V51I, A58T, T97A, R98K
# light: B1 light with G51S, S53N, N54Q, S77T, R80Q
# modifications: drug-linker from Intermediate F319 on Cys, sites not stated
# B11: ADC Example 323-8382 (antibody, human IgG1, lambda)
# heavy: B1 heavy with R30S, V51I, A58T, T97A, R98K
# light: B1 light with G51S, S53N, N54Q, S77T, R80Q
# modifications: drug-linker from Intermediate F323 on Cys, sites not stated
# B12: ADC Example 317-6497 (antibody, human IgG1, lambda)
# heavy: B1 heavy
# light: B1 light
# modifications: drug-linker from Intermediate F317 on Cys, sites not stated
# B13: ADC Example 321-8382 (antibody, human IgG1, lambda)
# heavy: B1 heavy with R30S, V51I, A58T, T97A, R98K
# light: B1 light with G51S, S53N, N54Q, S77T, R80Q
# modifications: drug-linker from Intermediate F321 on Cys, sites not stated
# B14: ADC Example 325-8382 (antibody, human IgG1, lambda)
# heavy: B1 heavy with R30S, V51I, A58T, T97A, R98K
# light: B1 light with G51S, S53N, N54Q, S77T, R80Q
# modifications: drug-linker from Intermediate F325 on Cys, sites not stated
# B15: TPP-8322 (antibody, human IgG1, lambda)
# heavy: EVQLLESGGGLVQPGGSLRLSCAASGFTFSSYGMHWVRQAPGKGLEWVSAISGSGGSTYYADSVKGRFTISRDNSKNTLYLQMNSLRAEDTAVYYCARGYYYYGMDVWGQGTLVTVSS[left out - human IgG1 constant region]
# light: QSVLTQPPSASGTPGQRVTISCSGGSSNIGSNPVNWYQQLPGTAPKLLIYGNSKRPSGVPDRFSGSKSGTSASLAISGLRSEDEADYYCQSYDSSLSGWVFGGGTKLTVLGQPKAAPSVTLFPPSSEELQANKATLVCLISDFYPGAVTVAWKADSSPVKAGVETTTPSKQSNNKYAASSYLSLTPEQWKSHRSYSCQVTHEGSTVEKTVAPTECS
# B16: TPP-8750 (antibody, human IgG1, lambda)
# heavy: EVQLLESGGGLVQPGGSLRLSCAASGFTFSSYGMHWVRQAPGKGLEWVSAISGSGGSTYYADSVKGRFTISRDNSKNTLYLQMNSLRAEDTAVYYCARGYYYYGMDVWGQGTLVTVSS[left out - human IgG1 constant region with changes]
# light: B15 light with S53N
# B17: TPP-8748 (antibody, human IgG1, lambda)
# heavy: B15 heavy
# light: B15 light with S53N
# B18: TPP-8382 (antibody, human IgG1, lambda)
# heavy: B1 heavy with R30S, V51I, A58T, T97A, R98K
# light: B1 light with G51S, S53N, N54Q, S77T, R80Q
# B19: TPP-7611 (antibody, human IgG1, lambda)
# heavy: EVQLLESGGGLVQPGGSLRLSCAASGFTFRSYAMSWVRQAPGKGLEWVSSVSGSGGSALYADSVKGRFTISRDNSKNTLYLQMNSLRAEDTAVYYCTRLTGTSFDYWGQGTLVTVSS[left out - human IgG1 constant region with changes]
# light: B1 light
# Target: T1, human B7H3 on cancer cell lines
# Assay: cell-based or functional assay
Binder,U251 CTG (IC50 M),NCI-H292 CTG (IC50 M)
B1,0.0768 nM,
B2,18.1 nM,220 nM
B3,34.6 nM,
B4,216 nM,
B5,65.7 nM,
B6,6.66 nM,
B7,47.7 nM,
B8,0.466 nM,
B9,21 nM,> 300 nM
B10,1.44 nM,
B11,0.802 nM,95.5 nM
B12,14.2 nM,199 nM
B13,3.9 nM,
B14,0.0644 nM,

# Target: T1, human B7H3 on cancer cell lines
# Assay: flow cytometry on A498 cells, dose response from 10 ug/mL (1:5 dilution), FITC secondary antibody
# Procedure: (§1) A dose response curve (1:5 dilution) was generated. Following incubation, 200 μL of ice-cold FACS buffer were pipetted in and the cell suspension was centrifuged at 4° C., 400 g for 4 min. The cell pellet was washed with 300 μL of ice-cold FACS buffer prior to resuspending the pellet obtained in 100 μL of FACS buffer and again incubating for 30 min on ice with secondary antibody (monoclonal anti-kappa light chains FITC antibody, Sigma, No. SAB4700605) in a 1:10 dilution. Subsequently, the cells were washed with ice-cold FACS buffer and adjusted to a cell concentration of 0.5×10⁶ cells/mL before carrying out the flow cytometry using a Guava flow cytometer (Millipore). Propidium iodide (final concentration 1 μg/mL) was used for the live staining. With the aid of the background-corrected geometric mean fluorescence values, the IC50 value of the antibody to be investigated was determined.
row,Binder,EC50
1,B15,1.02 nM
2,B16,0.855 nM
3,B17,1.67 nM
4,B18,1.03 nM
5,B19,0.599 nM

# Target: T1, human B7H3 on cancer cell lines
# Assay: flow cytometry on U251 MG cells, dose response from 10 ug/mL (1:5 dilution), FITC secondary antibody
# Procedure: as §1
row,Binder,EC50
1,B16,0.707 nM
2,B17,0.783 nM
3,B18,1.42 nM

# Target: T1, human B7H3 on cancer cell lines
# Assay: cell-based or functional assay
# Remark: another data set of the same source
row,Binder,MCF-7 CTG (IC50 M)
1,B1,0.069 nM

# Target: T1, human B7H3 on cancer cell lines
# Assay: flow cytometry on U87 MG cells, dose response from 10 ug/mL (1:5 dilution), FITC secondary antibody
# Procedure: as §1
row,Binder,EC50
1,B15,0.887 nM
2,B18,2.15 nM

# Where a chain is given by its changes, count along the chain named.
